Assay results from PMC12036557, “Functional Imaging of CYP3A4 at Multiple Dimensions Using an AI‐Driven High Performance Fluorogenic Substrate” (Small (Weinheim an Der Bergstrasse, Germany), 2025).

B1: hCYP3A4 (Homo sapiens) (protein)
chain: MALIPDLAMETWLLLAVSLVLLYLYGTHSHGLFKKLGIPGPTPLPFLGNILSYHKGFCMFDMECHKKYGKVWGFYDGQQPVLAITDPDMIKTVLVKECYSVFTNRRPFGPVGFMKSAISIAEDEEWKRLRSLLSPTFTSGKLKEMVPIIAQYGDVLVRNLRREAETGKPVTLKDVFGAYSMDVITSTSFGVNIDSLNNPQDPFVENTKKLLRFDFLDPFFLSITVFPFLIPILEVLNICVFPREVTNFLRKSVKRMKESRLEDTQKHRVDFLQLMIDSQNSKETESHKALSDLELVAQSIIFIFAGYETTSSVLSFIMYELATHPDVQQKLQEEIDAVLPNKAPPTYDTVLQMEYLDMVVNETLRLFPIAMRLERVCKKDVEINGMFIPKGVVVMIPSYALHRDPKYWTEPEKFLPERFSKKNKDNIDPYIYTPFGSGPRNCIGMRFALMNMKLALIRVLQNFSFKPCKETQIPLKLSLGGLLQPEKPVVLKVESRDGTVSGA
notes: purchased Cypex
B2: hCYP3A4 in HLMs (Homo sapiens) (protein)
chain: B1 chain
notes: Pooled human liver microsomes from 50 donors; tissue Bioreclamation IVT lot No. X008067; host or cells: pooled human liver microsomes (50 donors)

Tests used:
Type in all cases: biochemical, human
[1] = substrate: CC(C)c1nc(CN2C(=O)c3cccc4cccc(c34)C2=O)cs1; assay: Enzyme kinetic analyses of NFs 4-hydroxylation by hCYP3A4; details: other: 4‐hydroxylation by hCYP3A4
[2] = substrate: Cc1nc(CN2C(=O)c3cccc4cccc(c34)C2=O)cs1; assay: as above; details: other: 4‐hydroxylation by hCYP3A4
[3] = substrate: O=C1c2cccc3cccc(c23)C(=O)N1Cc1cscn1; assay: as above; details: other: 4‐hydroxylation by hCYP3A4
[4] = substrate: CC(C)c1nc(CN2C(=O)c3cccc4cccc(c34)C2=O)cs1; assay: Enzyme kinetic analyses of NFs 4-hydroxylation in HLMs; details: other: 4-hydroxylation in HLMs
[5] = substrate: Cc1nc(CN2C(=O)c3cccc4cccc(c34)C2=O)cs1; assay: as above; details: other: 4-hydroxylation in HLMs
[6] = substrate: O=C1c2cccc3cccc(c23)C(=O)N1Cc1cscn1; assay: as above; details: other: 4-hydroxylation in HLMs

| Protein | kcat [1] [nmol/min/nmol hCYP3A4] | kcat [2] [nmol/min/nmol hCYP3A4] | kcat [3] [nmol/min/nmol hCYP3A4] | kcat/Km [3] [µL min^−1/nmol hCYP3A4] | Km [4] [µM] | kcat [4] [nmol/min/nmol hCYP3A4] | kcat/Km [4] [μL/min/nmol hCYP3A4] | Km [5] [µM] | kcat [5] [nmol/min/nmol hCYP3A4] | kcat/Km [5] [μL/min/nmol hCYP3A4] | Km [6] [µM] | kcat [6] [nmol/min/nmol hCYP3A4] | kcat/Km [6] [μL/min/nmol hCYP3A4] |
| --- | --- | --- | --- | --- | --- | --- | --- | --- | --- | --- | --- | --- | --- |
| B1 | 2.10 ± 0.04 | 4.19 ± 0.09 | 11.42 ± 0.34 | 857 |  |  |  |  |  |  |  |  |  |
| B2 |  |  |  |  | 3.44 ± 0.20 | 0.46 ± 0.01 | 133.72 | 9.51 ± 1.20 | 1.04 ± 0.05 | 109.36 | 13.78 ± 1.71 | 1.75 ± 0.09 | 127.00 |
